Measured values taken from PubChem BioAssay AID1508642 (National Center for Advancing Translational Sciences (NCATS), 2021).
The whole screen tested about 43,000 compounds, of which about 200 (0.47%) were called active. Not shown: some 12% with an inconclusive outcome. Calls come from the whole dose curve; as a rule, active = well fitted cell-killing curve with a large enough effect; inconclusive = small, poorly fitted or top-dose-only effect, or effect the other way; inactive = flat fitted curve, though single readings scatter. The list shows a part of the results.

assay: Cell viability qHTS assay in S16 Pmp22-F2sN cells; conditions: S16 Pmp22-F2sN Schwann cells viability, CellTiter-Glo, 24 h; series mostly up to 57.5 µM; activity change, negative = cytotoxicity: at the top concentration; note: nearly all actives have a fitted effect of over 65% in size
In short: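 Used to flag compounds lowering reporter output through toxicity, this quantitative HTS measures ATP-based CellTiter-Glo luminescence in S16 Pmp22-F2sN Schwann cells after 24 h compound exposure at 37C.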
% is set by controls: 0 for no effect and ±100 for the full control effect.

| Compound | activity change, negative = cytotoxicity |
| --- | --- |
| COc1cc2c(=O)n(CCC(=O)NCC3CCCO3)c(=O)n(CC(=O)Nc3ccc(C)c(C)c3)c2cc1OC (stereo unspecified) | inactive: -0.682% |
| Cc1ccc(OCC(=O)N(Cc2ccco2)Cc2ccc(C)o2)cc1 | inactive: -13.4% |
| COc1ccc(-c2cc(C(F)(F)F)n3nc(C(=O)Nc4ccccc4SC)cc3n2)cc1OC | inactive: 3.38% |
| CCC(C)NC(=O)c1nn(-c2ccc(C)cc2)c(=O)n(C)c1=O (stereo unspecified) | inactive: 1.01% |
| COCCCNC(=O)C1CCN(c2nn3cc(-c4ccc(F)cc4)nc3s2)CC1 | inactive: 5.95% |
| COc1cccc(CCNC(=O)c2c(O)nc3ccccn3c2=O)c1 | inactive: 0.0232% |
| CC(C)c1cccc(OCCn2c(-c3ccc(Cl)cc3)nc3ccccc3c2=O)c1 | inactive: 4.03% |
| CC1=C(C(=O)NCc2ccc(Cl)cc2)C2(CCCCC2)OC1=O | inactive: 3.18% |
| CCn1cc(S(=O)(=O)c2cccc(Cl)c2)c(=O)c2cc(F)c(N3CCN(c4ccccc4)CC3)cc21 | inactive: 2.38% |
| Cc1ccc(C)n1-c1nnc(N2CCCC(C(=O)NCc3cccc(Cl)c3)C2)s1 (stereo unspecified) | inactive: -7.09% |
| CCc1ccc(-n2c(Cc3ccccc3)nnc2SCc2nc(-c3cccs3)no2)cc1 | inactive: -27.1% |
| COc1cc(OC)c(NC(=O)Cn2c(=O)oc3cc(S(=O)(=O)N4CCCC4)ccc32)cc1Cl | inactive: -1.7% |
| Cc1ccc(CN2C(=O)c3oc4ccc(C)cc4c(=O)c3C2c2ccc(O)cc2)cc1 (stereo unspecified) | inactive: -9.19% |
| COc1ccc(NS(=O)(=O)c2ccc3[nH]c4c(c3c2)CCCC4)cc1Cl | inactive: -25.8% |
| CCCCCn1c(-c2ccc(OC)c(OC)c2)nc2ccccc21 | inactive: -20.8% |
| Cc1ccc(Cl)cc1N1CCN(S(=O)(=O)c2ccc3c(c2)CCCN3C(=O)C2CCC2)CC1 | inactive: 29.1% |
| O=C(NCCc1ccccc1)c1cc(Sc2cccc(Cl)c2)nc2ccccc12 | inactive: -0.93% |
| CCOc1ccc(C(=O)NCCS(=O)(=O)N2CCN(c3ccccc3F)CC2)cc1OCC | inactive: 2.34% |
| O=C(Cn1ncc2c([nH]c3ccccc32)c1=O)NCC1CCN(Cc2ccc(F)cc2)CC1 | inactive: 11.7% |
| CCOc1ccccc1CNC(=O)C1CCN(S(=O)(=O)c2ccc3c(ccn3C)c2)CC1 | inactive: -17% |
| CCOC(=O)c1c(S(=O)(=O)NCC(=O)Nc2cc(C)ccc2C)c(C)n(C)c1C | inactive: 0.113% |

| Compound | activity change, negative = cytotoxicity |
| --- | --- |
| CCc1nn(Cc2cc(C)ccc2C)c(=O)c2cc3cc(C)ccc3n12 | inactive: -3.38% |
| Cc1ccc(NS(=O)(=O)c2ccc3c(c2)CCCN3C(=O)C2CCC2)c(C)c1 | inactive: -17.4% |
| COc1ccc(Cl)cc1-n1nnc(-c2nsc(NC(=O)c3ccccc3Cl)n2)c1C | inactive: 17.5% |
| CCCSc1nc2sc3c(c2c(=O)n1Cc1ccccc1)CC(C)(CC)OC3 (stereo unspecified) | inactive: 22.4% |
| COc1ccc(C2(CNC(=O)C(=O)Nc3ccc(F)cc3)CCCC2)cc1OC | inactive: -5.74% |
| CCc1ccccc1NC(=O)C(=O)NCC(c1cccnc1)N1CCN(c2ccccc2F)CC1 (stereo unspecified) | inactive: -23.2% |
| Cc1ccc(-c2cn3c(n2)sc2cc(C(=O)NC(C)C45CC6CC(CC(C6)C4)C5)ccc23)cc1 (stereo unspecified) | inactive: 1.38% |
| CCOC(=O)C1CCN(S(=O)(=O)c2csc(C(N)=O)c2)CC1 | inactive: 15.7% |
| COc1ccc(N2CCN(C(=O)c3cc4c(s3)-c3ccccc3OC4)CC2)cc1 | inactive: -0.061% |
| COc1ccc(N2CC(NC(=O)c3ccc(Br)o3)CC2=O)cc1 (stereo unspecified) | inactive: 4.42% |
| CCc1nn2c(=O)cc(COC(=O)c3ccco3)nc2s1 | inactive: -27.8% |
| CCOC(=O)N1CCc2c(sc(NCc3cc(OC)c(OC)cc3OC)c2C(=O)Nc2ccc(OCC)cc2)C1 | inactive: 7.83% |
| CCc1ccc(-n2c(=O)c3cccnc3n2CC(=O)Nc2cc(F)ccc2F)cc1 | inactive: 5.78% |
| CCN(CC)C(=O)Cn1cc(SCC(=O)Nc2ccccc2C)c2ccccc21 | inactive: -4.54% |
| Cc1cccc(-c2nc(SCCCOc3ccc(Cl)c(C)c3)n3[nH]c(=O)cc3n2)c1 | inactive: 2.13% |
| CCOC(=O)c1cccc(NC(=O)NCc2ccc3c(c2)CCN3C(=O)c2ccccc2)c1 | inactive: 12% |
| CCOC(=O)c1ccc(-c2ccc(/C=C(\C#N)C(=O)Nc3ccc(OCC)cc3)o2)cc1 | inactive: 0.908% |
| CCN1CCN(c2ncc3c(n2)CCN(Cc2ccc(OC(C)C)cc2)C3)CC1 | inactive: 3.9% |
| CCCCN(CC)CCCNC(=O)CCN1N=C(c2ccc(OC)cc2)CCC1=O | inactive: 5.44% |
| COc1ccccc1NC(=O)C(=O)NCCc1csc(-c2cccc(F)c2)n1 | inactive: 16.6% |
| CCOC(=O)c1c(S(=O)(=O)N2CCCC(C(=O)Nc3cccc(Cl)c3)C2)c(C)n(C)c1C (stereo unspecified) | inactive: -13.9% |

| Compound | activity change, negative = cytotoxicity |
| --- | --- |
| Cc1ccc(OCC(=O)Nc2nnc(SCc3cc(=O)c4ccccc4[nH]3)s2)cc1 | inactive: -2.18% |
| Cc1cc(N2CCCCC2)nc2ccc(NC(=O)c3cccc(Cl)c3)cc12 | inactive: 9.1% |
| CCOc1ccc(CNS(=O)(=O)c2cc3c(cc2C)NC(=O)CO3)cc1OC | inactive: 1.01% |
| COc1cccc(CNC(=O)c2cc3c(s2)-c2ccccc2OC3)c1 | inactive: 11.3% |
| COc1ccc(-n2c(=O)c3c4c(sc3n(Cc3ccc(F)cc3)c2=O)CCCC4)c(OC)c1 | inactive: 3.16% |
| COc1ccccc1NC(=O)C1=C(C)Nc2ncnn2C1c1ccccc1C(=O)O (stereo unspecified) | inactive: 1.83% |
| COc1ccc(NC(=O)c2cc(C3CC3)nc3c2c(C)nn3-c2ccccc2)cc1 | inactive: 13.7% |
| COc1ccccc1-c1nnc(SCC(=O)c2ccc(Cl)cc2)n1-c1ccccc1 | inactive: -2.71% |
| CCOc1ccc(NC(=O)CSc2nc3c(oc4ccccc43)c(=O)n2-c2ccccc2C)cc1 | inactive: -4.02% |
| CC(NC(=O)c1ccc2c(c1)CCN2S(=O)(=O)c1ccc(Cl)cc1)c1ccccc1 (stereo unspecified) | inactive: -15.2% |
| CCOc1ccc(C(=O)N2CCC(c3nc4ccccc4o3)CC2)cc1 | inactive: 5.67% |
| CCOc1ccc(OCC)c(NC(=O)c2nnn(CC(=O)Nc3ccc(C)cc3C)c2N)c1 | inactive: -3.94% |
| Cc1cc2n(n1)C(c1cc(C(C)(C)C)c(O)cc1O)Nc1ccccc1-2 (stereo unspecified) | inactive: -28.3% |
| COc1ccccc1CNC(=O)C(NS(=O)(=O)c1cccs1)C(C)C (stereo unspecified) | inactive: -9.59% |
| COc1ccc(-c2cc3ccc(O)c(CN4CCOCC4)c3oc2=O)cc1OC | inactive: -14.7% |
| Cc1ccc(-c2nc3sc(CCNC(=O)c4ccc(Br)o4)c(C)n3n2)cc1 | inactive: -11.6% |
| CCCCOc1ccc(C(=O)Nc2cccc(-c3nc4cccnc4s3)c2)cc1 | inactive: 0.783% |
| COc1ccc(N(C)C(=O)c2cn(C3CCCCC3)c(=O)c3c2c2ccccc2n3C)cc1 | inactive: -22.3% |
| COc1ccc(C2=NN(CC(=O)NCCc3ccc(OC)c(OC)c3)C(=O)CC2)cc1 | inactive: 1.37% |
